Assay results reported in PubChem BioAssay AID1645882 (National Center for Advancing Translational Sciences (NCATS), 2021).
The campaign covered roughly 16,000 compounds. About 120 (0.75%) were called active. Another 4% or so got no clear call; they are omitted. Calls come from the whole dose curve; as a rule, active = well fitted inhibition curve with a large enough effect; inconclusive = small, poorly fitted or top-dose-only effect; inactive = no such curve, though single readings can be large or run the other way. The list shows a part of the results. Where a SMILES comes first, the peptide text is derived from it. Bridges are numbered along the chain shown (N, C = ends). [ ]: non-standard residue; d: D form. The star is where a group is joined. pGlu = O=C1CC[C@@H](C(=O)O)N1; X4 = CC[C@H](C)CCCCC(=O)*; Dab = NCC[C@H](N)C(=O)O

Each molecule was assayed against Rap guanine nucleotide exchange factor 3 (Homo sapiens) (UniProt O95398) (assay: Validation qHTS for antagonist of cAMP-regulated guanine nucleotide exchange factor 3 (EPAC1)). Details: EPAC1 Rap1B-BODIPY-GDP exchange, fluorescence; series mostly up to 150 µM; activity change, negative = inhibition: at the top concentration.
Outline: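 EPAC1 (100 nM) mixed with 250 nM RAP1B-BODIPY-GDP and 50 uM GDP; compounds in concentration series, 5 min at room temperature. Fluorescence (ex 480/em 540 nm) read every 5 min for 30 min; normalized to ATA control and DMSO.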
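Note: plate controls were DMSO for no effect and ATA control for full effect; nearly all actives have a fitted effect of over 75% in size.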

UniProt O95398, sequence (O95398 whole entry, looked up): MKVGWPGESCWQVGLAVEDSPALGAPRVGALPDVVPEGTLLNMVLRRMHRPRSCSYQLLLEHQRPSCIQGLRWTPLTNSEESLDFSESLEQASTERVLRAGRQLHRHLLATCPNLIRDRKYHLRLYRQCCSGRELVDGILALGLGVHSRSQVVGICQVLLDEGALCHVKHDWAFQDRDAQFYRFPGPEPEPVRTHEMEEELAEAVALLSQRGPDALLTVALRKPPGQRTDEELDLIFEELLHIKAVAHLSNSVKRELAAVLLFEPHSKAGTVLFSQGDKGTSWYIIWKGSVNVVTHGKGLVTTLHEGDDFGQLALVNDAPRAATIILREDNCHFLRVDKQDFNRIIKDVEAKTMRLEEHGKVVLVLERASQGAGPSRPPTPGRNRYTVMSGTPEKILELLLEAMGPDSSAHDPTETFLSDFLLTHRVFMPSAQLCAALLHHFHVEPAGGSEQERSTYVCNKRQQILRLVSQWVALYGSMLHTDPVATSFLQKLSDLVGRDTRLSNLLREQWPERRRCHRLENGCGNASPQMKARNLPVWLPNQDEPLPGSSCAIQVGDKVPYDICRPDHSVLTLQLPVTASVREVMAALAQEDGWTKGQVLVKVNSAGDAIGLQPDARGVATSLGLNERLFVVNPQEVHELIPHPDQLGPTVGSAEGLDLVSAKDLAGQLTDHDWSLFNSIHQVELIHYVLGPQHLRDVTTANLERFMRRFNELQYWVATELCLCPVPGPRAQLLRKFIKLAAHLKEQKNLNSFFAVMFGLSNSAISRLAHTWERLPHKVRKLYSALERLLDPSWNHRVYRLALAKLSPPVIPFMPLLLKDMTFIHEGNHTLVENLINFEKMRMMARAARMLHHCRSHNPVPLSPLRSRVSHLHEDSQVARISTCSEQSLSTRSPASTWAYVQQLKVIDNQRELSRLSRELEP

Activity change, negative = inhibition, inactive:
CC1(C)C(=O)N(CCN2CCC(C(=O)c3ccc(F)cc3)CC2)c2ccccc21 9.05% [at 75.8 µM]
CCCCCc1ccc(-c2cn(Cc3ccc4c(c3)C(=O)c3ccccc3C4=O)nn2)cc1 9.51%
COc1cc(-c2ccc(C)cc2)cc2c1OCCN(C(=O)CCn1ccc(C)n1)C2 1.23%
O=C(OC1C[C@H]2CC[C@@H](C1)[N+]21CCCC1)C(O)(c1ccccc1)c1ccccc1 (stereo partly drawn) 2.8%
COc1c(O)cc(O)cc1O -7.42%
CCN(CC)CC1CCCCN1CC(=O)N1c2ccccc2C(=O)Nc2cccnc21 (stereo not drawn) 14.6%
CC#CCC(C)[C@H](O)/C=C/[C@@H]1[C@H]2C/C(=C/CCCC(=O)O)C[C@H]2C[C@H]1O (stereo partly drawn) 3.43%
CC(C)CN(C[C@@H](O)[C@H](Cc1ccccc1)NC(=O)O[C@@H]1CCOC1)S(=O)(=O)c1ccc(N)cc1 9.26%
Cc1ccc(/C=N/n2c(-c3ccccc3)csc2=S)cc1 12.3%
CC(C)(C)[C@H]1CCC(=O)N([C@H](CN=[N+]=[N-])Cc2ccccc2)CC1 -14.5%
COc1cc(=O)n2c(c1C(=O)NCc1ccco1)CCN(C(=O)c1cccnc1SC)CC2 1.19%
Cc1cnc(CNc2ncnc3ccc(-c4ccc(C(=O)N(C)C)cc4)cc23)cn1 -8.65%
Cc1c(C(=O)N2CCC(Cc3ccccc3)CC2)sc2ncnc(NCc3ccccn3)c12 -9%
O=C(Nc1ccccc1)OCC(CN1CCCCC1)OC(=O)Nc1ccccc1 (stereo not drawn) 8.98% [at 75.8 µM]
NC(=O)[C@@H]1C[C@]2(NC(=O)NC2=O)c2cc(F)ccc2O1 15.4%
COCCNc1ccnc(-c2ccccc2C)n1 11.3%
CC(C)C1=CC2=CC[C@H]3[C@](C)(C(=O)O)CCC[C@]3(C)C2CC1 (stereo partly drawn) 0.812%
CO/N=C(\C(=O)N[C@@H]1C(=O)N2C(C(=O)O)=C(CSC(=O)c3ccco3)CS[C@H]12)c1csc(N)n1 22.9%
N[C@@H]1CCN(O)C1=O 1.34%
CC(=O)Nc1ccc(OCC(O)CNC(C)C)cc1 (stereo not drawn) 10.3%
COc1ccc(Oc2ncc3nc(CCc4ccccc4)c(=O)n(C4CC4)c3n2)cc1 -0.444%
O=C(c1csnn1)N1CCC2(CC1)CN(c1cccc(-c3ccccc3)c1)C2 -8.07%
COc1ccc(-c2ccnc(-n3ncc(C(=O)NCc4ccon4)c3C3CC3)n2)cc1F 13%
C#CCCCCCCCCCCCCCCCC(=O)O
C[N+](C)(C)CCC(=O)c1cccc2ccccc12 29.6%
N#CCCn1c(=O)c(-c2ccc(Cl)cc2)nc2cnc(N3CCOCC3)nc21 19.7%
CC[C@H](C)CCCCC(=O)N[C@@H](CCN)C(=O)N[C@H](C(=O)N[C@@H](CCN)C(=O)N[C@H]1CCNC(=O)[C@@H]([C@H](C)O)NC(=O)[C@H](CCN)NC(=O)[C@H](CCN)NC(=O)[C@H](CC(C)C)NC(=O)[C@@H](CC(C)C)NC(=O)[C@H](CCN)NC1=O)[C@@H](C)O (X4-[Dab]T[Dab][Dab][Dab][dL]L[Dab][Dab][dT]; lactam 4-C) -8.49% [at 75.8 µM]
CC[C@H](C)[C@H](NC(=O)[C@H](Cc1ccccc1)NC(=O)[C@H](C)NC(=O)[C@H](CC(=O)O)NC(=O)[C@H](CCCCN)NC(=O)[C@H](CO)NC(=O)[C@@H]1CCCN1C(=O)[C@@H]1CCC(=O)N1)C(=O)NCC(=O)N[C@@H](CC(C)C)C(=O)N[C@@H](CCSC)C(N)=O ([pGlu]PSKDAFIGLM-NH2) 10.8%
C[C@@H]1O[C@@H](OC[C@H]2O[C@@H](Oc3c(-c4ccc(O)c(O)c4)oc4cc(O)cc(O)c4c3=O)[C@H](O)[C@@H](O)[C@@H]2O)[C@H](O)[C@H](O)[C@H]1O 19.2%
COC(=O)/C=C/c1cc(F)ccc1S(=O)(=O)Nc1ccccc1 -17.2%
C[C@@H]1CN(Cc2ccc3c(c2)CN(Cc2nc(-c4ccccc4)cs2)CCO3)C[C@H](C)O1 -6.26%
Cc1noc(C)c1C(=O)N1CCC[C@@]2(CCN(c3ccccc3)C2)C1 4.29%
CC(=O)N1CCC[C@H]1C(=O)NCC1Cc2cc(-c3cnccn3)cc(Cl)c2O1 (stereo partly drawn) 8.73%
COCCn1c(=O)c(-c2cc(F)cc(F)c2)nc2cnc(N3CCNCC3)nc21 9.7%
CCCC(=O)Nc1ccc(OCC(O)CNC(C)C)c(C(C)=O)c1 (stereo not drawn)
COc1ccc(Oc2ncc3nc(CCc4ccccc4)c(=O)n(C[C@H]4CCCO4)c3n2)cc1 5.27%
N=C(N=C(N)N)N1CCOCC1 1.48% [at 75.8 µM]
Nc1ccn([C@@H]2O[C@H](CO)[C@@H](OP(=O)(O)O)[C@H]2O)c(=O)n1 8.02%
c1ccc(CNc2nc(-c3cccnc3)nc3ccccc23)cc1 -2.41%
C[C@H](O)CO[C@H]1[C@H]2O[C@H]3[C@H](O)[C@@H](O)[C@@H](O[C@H]4[C@H](O)[C@@H](O)[C@@H](O[C@H]5[C@H](O)[C@@H](O)[C@@H](O[C@H]6[C@H](O)[C@@H](OC[C@H](C)O)[C@@H](O[C@H]7[C@H](O)[C@@H](OC[C@H](C)O)[C@@H](O[C@H]8[C@H](O)[C@@H](O)[C@@H](O[C@@H]([C@@H]1O)[C@@H](CO)O2)O[C@@H]8CO)O[C@@H]7CO)O[C@@H]6CO)O[C@@H]5CO)O[C@@H]4CO)O[C@@H]3CO -12.1%
Nc1nc(N)c(N=O)c(N)n1 -8.93%
Cc1cc(OI)c(C(C)C)cc1-c1cc(C(C)C)c(OI)cc1C -5.09%
COc1cc(O)c(C(=O)/C=C/c2ccc(O)c(OC)c2)c(OC)c1 28.3%
CO[C@@H]1[C@@H](O[C@@H]2O[C@H](C)[C@@H](O[C@H]3C[C@@](C)(O)[C@@H](O)[C@H](C)O3)[C@H](N(C)C)[C@H]2O)[C@@H](CC=O)C[C@@H](C)[C@@H](O[C@@H]2CC[C@H](N(C)C)[C@@H](C)O2)/C=C/C=C/C[C@@H](C)OC(=O)C[C@H]1OC(C)=O 52.5%
Cc1noc(C)c1-c1nccc(NCCN2CCOCC2)n1 11.3%
Cc1nc([N+](=O)[O-])cn1-c1ccc([N+](=O)[O-])cc1 15.6%
Cc1cccc(CNc2cc(-c3ccccc3CN(C)C)ncn2)c1 22%
CC(O)c1nc2ccccc2[nH]1 (stereo not drawn) 5.07%
CN(C)C(=O)c1ccc(-c2nc(N(C)Cc3ccco3)c3ccccc3n2)cc1 -13.5%
O=C(Nc1ccccc1)N1CC2(CCN(C(=O)c3ccncc3)CC2)C1 13.9%
CC(=O)OCC(=O)[C@@]12OC3(CCCC3)O[C@@H]1C[C@H]1[C@@H]3CCC4=CC(=O)C=C[C@]4(C)[C@@]3(F)[C@@H](O)C[C@@]12C -11.1%
Cc1noc(C)c1-c1ccc2ncnc(N(C)Cc3ccco3)c2c1 8.68%
COc1cc(=O)n2c(c1C(=O)N(C)Cc1nccs1)CCN(Cc1cc(C)cc(C)c1)CC2 18.4%
C[C@H](Cc1ccccc1)Nc1ncnc2c1ncn2[C@@H]1O[C@H](CO)[C@@H](O)[C@H]1O
Cc1ccccc1-c1cncnc1N1CCN(C)CC1 18.7%
COc1ccccc1CN1CC[C@@]2(CCCN(C(=O)c3cnccn3)C2)C1 2.13%
COc1cc(-c2c(-c3cc(OC)c(OC)c(OC)c3)noc2C)ccc1F -2.64%
Cc1oc(=O)oc1CN1CCN(c2cc3c(cc2F)c(=O)c(C(=O)O)c2n3C(C)S2)CC1 (stereo not drawn) 7.8%
CN1CCN(c2ncc3nc(-c4cccs4)c(=O)n(Cc4cccs4)c3n2)CC1 16.8%
CO[C@H]1[C@@H](O)[C@H](N)[C@@H](O[C@H]2O[C@H]([C@H](C)N)CC[C@H]2N)[C@H](O)[C@@H]1N(C)C(=O)CN 30.2%
CSc1ncccc1C(=O)N1CCOc2ccc(C(C)(O)CCn3cccn3)cc2C1 (stereo not drawn) 10.6%
C[N+]1(C)C2CCC1CC(OC(=O)C(O)c1ccccc1)C2 (stereo not drawn) 6.68%
CO[C@@]12C[C@@H](COC(=O)c3cncc(Br)c3)CN(C)[C@H]1Cc1cn(C)c3cccc2c13 6.5%
COCCn1c(=O)c(-c2ccc(Cl)cc2)nc2cnc(N(C)C)nc21 -6.09%
COc1cccc(-c2ccc3ncnc(NCc4cccs4)c3c2)c1 2.01%
Cc1c(F)c(N2CCNC(C)C2)cc2c1c(=O)c(C(=O)O)cn2C1CC1 (stereo not drawn) 17.3%
C[C@@H]1O[C@@H](O[C@H]2[C@H](Oc3cc(O)c4c(c3)O[C@H](c3ccc(O)cc3)CC4=O)O[C@H](CO)[C@@H](O)[C@@H]2O)[C@H](O)[C@H](O)[C@H]1O 10.5%
COC(=O)N1CCC[C@@]2(CCN(C(=O)Nc3ccccc3)C2)C1 6.1%
CC(=O)OC1CC2C(C)(C)C(O)CCC2(C)C2CC[C@]3(C)C(=CC(=O)OC3c3ccoc3)C12C (stereo partly drawn) -3.03%
O=C(O)C1=CC(O)[C@@H](O)C(O)C1 (stereo partly drawn) 15.1%
CCOC(=O)N1CCN(c2nc(CN3CCCCC3CCO)nc3c(C)cccc23)CC1 (stereo not drawn) 12.9%
CSc1ccc(C(=O)N2CCc3c(cnc(C)c3CNC(=O)c3cncs3)C2)cc1 9.18%
COc1cc2c(cc1OC)Cc1cc(OC)c(OC)cc1Cc1cc(OC)c(OC)cc1C2 -3.76%
CCN1CCCC1=O 8.86%
CN(Cc1ccon1)C(=O)c1cnn(-c2ncc3c(n2)-c2ccccc2CCC3)c1C1CC1 13.2%
COc1ccc(-n2c(=O)c(-c3ccc(Cl)cc3)nc3cncnc32)cc1 15.3%
O=C(c1ccco1)N1CCC2(CCN(Cc3nccs3)CC2)CC1 12.7%
Cc1ccccc1CN1CCCOCCS1(=O)=O 9.54%
COc1cc2nc(CN(CCO)C3CS(=O)(=O)CC3O)nc(N3CCCCC3)c2cc1OC (stereo not drawn) 12.5%
CCC1(C2CCN(Cc3ccc(OC)cc3)CC2)NC(=O)N(CC2COc3ccccc3O2)C1=O (stereo not drawn) 19.2%
COc1ccc(OC)c(C(=O)N2CCOc3ccc(C(C)(O)CN(C)C)cc3C2)c1 (stereo not drawn) 11%
O=C(CCCCC(=O)Nc1c(I)cc(I)c(C(=O)O)c1I)Nc1c(I)cc(I)c(C(=O)O)c1I
CC(C)Cc1nc2cc(NS(=O)(=O)N(C)C)cc(C(=O)N3CCOCC3)c2n1C 23%
